Test results reported in the supplement of paper PMC9446081.
The whole screen tested about 39,000 compounds, of which about 220 (0.56%) showed activity. This is one part of the list.

System: Escherichia coli K-12 BW25113
Experiment: relative growth (OD600 normalised to plate interquartile mean) (fraction); higher = less growth inhibition, active = 0.2 or less
Settings: 50 µM; LB; incubation time: overnight (16-24 h)
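Note: static incubation at 37 °C against the wild-type strain, values averaged over two biological replicates.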

| SMILES | relative growth |
| --- | --- |
| O=C1O[C@@H](c2ccccc2)[C@@H](c2ccccc2)N2[C@@H](c3ccc(OCCO)cc3)[C@]3(C(=O)Nc4ccc(C#CC5=CCCCC5)cc43)[C@@H](C(=O)NC[C@H](O)c3ccccc3)[C@H]12 | inactive: 1.08 |
| CCCC1CC(C(=O)NC(C(C)Cl)C2OC(SC)C(O)C(O)C2O)N(C)C1.Cl (stereo unspecified) | inactive: 0.809 |
| Cc1cc(C(=O)Nc2ccc3c(c2)C(=O)N(C)[C@H]2CC[C@@H](CC(=O)NCC(F)(F)F)O[C@H]2CO3)no1 | inactive: 1.05 |
| O=C(c1ccc(-n2cnnn2)cc1)N1CCN([C@H]2CCS(=O)(=O)C2)CC1 | inactive: 0.992 |
| Cc1ccc(S(=O)(=O)N(C)C[C@@H]2OCCCC[C@@H](C)Oc3ccc(NC(=O)Nc4ccc(C(F)(F)F)cc4)cc3C(=O)N([C@@H](C)CO)C[C@H]2C)cc1 | inactive: 1.04 |
| COCC(=O)Nc1ccc2c(c1)C(=O)N(C)C[C@@H](OC)[C@H](C)CN(C(=O)Cc1ccccn1)[C@H](C)CO2 | inactive: 1 |
| [N-]=[N+]=Nc1ccccc1[C@H]1OC(c2ccc(OCCCO)cc2)=N[C@@]1(CCS(=O)(=O)c1ccccc1)C(=O)NC[C@@H](O)CO | inactive: 0.997 |
| C[C@H]1CN([C@@H](C)CO)C(=O)Cc2cc(NC(=O)Nc3ccc4c(c3)OCO4)ccc2O[C@H]1CN(C)Cc1ccc(C(=O)Nc2ccccc2N)cc1 | inactive: 1.03 |
| COCC#Cc1cnc2c(c1)C(=O)N([C@H](C)CO)C[C@H](C)[C@@H](CN(C)S(=O)(=O)c1cccc(OC)c1)O2 | inactive: 1 |
| C[C@@H]1CCCCO[C@H](CN(C)C(=O)C2CCCCC2)[C@@H](C)CN([C@H](C)CO)C(=O)c2cc(NC(=O)c3ccccc3)ccc2O1 | inactive: 0.991 |
| Cc1ccc(S(=O)(=O)Nc2ccc3c(c2)CC(=O)N([C@@H](C)CO)C[C@H](C)[C@@H](CN(C)S(=O)(=O)c2ccc(F)cc2)O3)cc1 | inactive: 0.988 |
| C[C@@H]1CN([C@@H](C)CO)C(=O)c2cc(-c3cncnc3)cnc2O[C@H]1CN(C)C(=O)Nc1ccc2c(c1)OCO2 | inactive: 0.969 |
| COc1ccc(S(=O)(=O)N(C)C[C@@H]2OCCCC[C@@H](C)Oc3ccc(NS(=O)(=O)c4ccc(Cl)cc4)cc3C(=O)N([C@H](C)CO)C[C@H]2C)cc1 | inactive: 1.03 |
| O=C(/C=c1/nc2c([nH]c1=O)=NON2)c1ccccc1 | inactive: 0.76 |
| COc1ccc(CN(C)C[C@H]2OCCCC[C@H](C)Oc3ccc(NS(=O)(=O)c4ccccc4)cc3C(=O)N([C@H](C)CO)C[C@@H]2C)cc1 | inactive: 1.02 |
| O=C(NCc1ccccc1)C1=C[C@@H](c2ccc(Br)cc2)C[C@@H](OCc2ccc(CO)cc2)O1 | inactive: 1.03 |
| C[C@@H]1CN([C@H](C)CO)C(=O)c2cc(NS(C)(=O)=O)ccc2O[C@H]1CN(C)C(=O)Nc1ccc2c(c1)OCO2 | inactive: 0.969 |
| Cc1ccc(C#N)c(=O)[nH]1 | inactive: 0.999 |
| COc1ccc(CN(C)C[C@H]2OCCCC[C@H](C)Oc3ccc(NC(=O)Nc4ccc5c(c4)OCO5)cc3C(=O)N([C@@H](C)CO)C[C@H]2C)cc1 | inactive: 0.965 |
| COc1ccc(S(=O)(=O)N(C)C[C@@H]2Oc3ccc(NC(=O)CCN4CCOCC4)cc3CC(=O)N([C@H](C)CO)C[C@H]2C)cc1 | inactive: 0.984 |
| C=CCN1C[C@H](C(=O)O)CC1=O | inactive: 0.992 |

| SMILES | relative growth |
| --- | --- |
| CCc1ccc(NC(=S)Nc2ccccc2C(C)C)cc1 | inactive: 0.982 |
| COc1cccc(C(=O)Nc2ccc3c(c2)C(=O)N(C)[C@@H]2CC[C@@H](CC(=O)NCC4CC4)O[C@H]2CO3)c1 | inactive: 1.01 |
| Cc1noc(C)c1NC(=O)N(C)C[C@H]1Oc2ccc(NC(=O)CCN3CCOCC3)cc2C(=O)N([C@H](C)CO)C[C@H]1C | inactive: 1.04 |
| C[C@@H]1CCCCO[C@@H](CN(C)Cc2ccc3c(c2)OCO3)[C@@H](C)CN([C@H](C)CO)C(=O)c2cc(NC(=O)CCC(F)(F)F)ccc2O1 | inactive: 1 |
| COc1ccc(NC(=O)Nc2ccc3c(c2)C(=O)N([C@@H](C)CO)C[C@@H](C)[C@H](CN(C)S(=O)(=O)c2c(C)noc2C)OCCCC[C@@H](C)O3)cc1 | inactive: 1.07 |
| Cc1noc(C)c1NC(=O)Nc1ccc2c(c1)CC(=O)N([C@@H](C)CO)C[C@H](C)[C@@H](CN(C)S(=O)(=O)c1c(C)noc1C)O2 | inactive: 0.988 |
| Cc1noc(C)c1NC(=O)Nc1cccc2c1O[C@@H](CN(C)S(C)(=O)=O)[C@H](C)CN([C@H](C)CO)C2=O | inactive: 0.99 |
| Cc1ccc(S(=O)(=O)Nc2cccc3c2O[C@H](CN(C)C(=O)Nc2ccc(C(F)(F)F)cc2)[C@@H](C)CN([C@H](C)CO)C3=O)cc1 | inactive: 0.983 |
| CC1(C)C=C(C(=O)N2CCOCC2)C(C)(C)N1 | inactive: 1.02 |
| CC(C)(O)C#Cc1cccc(-c2nc(C(=O)NCCCN3CCOCC3)cc3c2[C@@H](CCO)N(S(=O)C(C)(C)C)C3)c1 (stereo partly specified) | inactive: 0.982 |
| COc1ccc(-c2cnc3c(c2)C(=O)N([C@H](C)CO)C[C@H](C)[C@H](CN(C)S(=O)(=O)c2ccccc2)O3)cc1 | inactive: 1.01 |
| CCCNC(=O)Nc1ccc2c(c1)C(=O)N(C)C[C@H](OC)[C@@H](C)CN(C(=O)C1CCOCC1)[C@@H](C)CO2 | inactive: 1 |
| Cc1ccc(S(=O)(=O)N2C[C@@H](O)COC[C@@H]3O[C@H](CC(=O)N[C@@H]4CCN(Cc5ccccc5)C4)CC[C@H]32)cc1 | inactive: 0.983 |
| C[C@@H]1CCCCO[C@H](CN(C)Cc2ccc(C(=O)O)cc2)[C@@H](C)CN([C@H](C)CO)C(=O)c2cc(NC(=O)Nc3ccccc3)ccc2O1 | inactive: 1.01 |
| NCc1cccc2nsnc12 | inactive: 1.02 |
| C[C@H](CO)N1C[C@H](C)[C@@H](CN(C)C(=O)c2cnccn2)Oc2ncc(C#CCC3CCCC3)cc2C1=O | inactive: 1.01 |
| C[C@@H]1CN([C@H](C)CO)S(=O)(=O)c2ccc(-c3ccc(C(=O)N(C)C)cc3)cc2O[C@@H]1CN(C)C(=O)Cc1ccccn1 | inactive: 0.987 |
| Cc1cc(-c2cccs2)cc(C)n1 | inactive: 0.904 |
| C[C@@H]1CN([C@H](C)CO)C(=O)c2cc(NC(=O)Cn3cnnn3)ccc2O[C@H]1CN(C)S(=O)(=O)c1ccc(F)cc1 | inactive: 0.998 |
| COc1ccc(S(=O)(=O)Nc2ccc3c(c2)CC(=O)N([C@@H](C)CO)C[C@H](C)[C@H](CN(C)S(C)(=O)=O)O3)cc1 | inactive: 0.981 |
| C[C@@H]1CCCCO[C@@H](CN(C)C(=O)Nc2ccc(F)cc2)[C@@H](C)CN([C@@H](C)CO)C(=O)c2cc(NC(=O)NC3CCCCC3)ccc2O1 | inactive: 1.02 |

| SMILES | relative growth |
| --- | --- |
| c1csc(Cn2cccc2)c1 | inactive: 1.07 |
| COc1ccc(NC(=O)Nc2ccc3c(c2)C(=O)N([C@H](C)CO)C[C@@H](C)[C@H](CN(C)S(=O)(=O)c2c(C)noc2C)OCCCC[C@H](C)O3)cc1 | inactive: 1.01 |
| CCCN(C)C[C@H]1OCCCC[C@@H](C)Oc2ccc(NS(C)(=O)=O)cc2C(=O)N([C@@H](C)CO)C[C@H]1C | inactive: 1.01 |
| COCC(=O)N(C)C[C@H]1Oc2cc(C#CCN(C)C)ccc2S(=O)(=O)N([C@@H](C)CO)C[C@@H]1C | inactive: 0.809 |
| Cc1noc(C)c1NC(=O)Nc1ccc2c(c1)C(=O)N([C@H](C)CO)C[C@H](C)[C@H](CN(C)CC1CC1)OCCCC[C@@H](C)O2 | inactive: 0.999 |
| C[C@H](CO)N1C[C@H](C)[C@H](CN(C)S(=O)(=O)c2cccs2)OCCCC[C@H](C)Oc2ccc(NC(=O)Nc3ccc(F)cc3)cc2C1=O | inactive: 1.01 |
| C[C@@H]1CN([C@@H](C)CO)C(=O)c2cc(C#Cc3cccnc3)cnc2O[C@@H]1CN(C)S(C)(=O)=O | inactive: 0.973 |
| Cc1noc(C)c1NC(=O)Nc1ccc2c(c1)C(=O)N([C@@H](C)CO)C[C@H](C)[C@H](CN(C)S(=O)(=O)c1ccc(Cl)cc1)OCCCC[C@@H](C)O2 | inactive: 0.975 |
| C[C@H]1CN([C@@H](C)CO)C(=O)c2cc(NC(=O)C3CC3)ccc2O[C@@H]1CN(C)Cc1ccc(-c2ccccc2)cc1 | inactive: 1.03 |
| COCC(=O)N1C[C@H](C)[C@@H](OC)CN(C)C(=O)c2cc(NC(=O)Nc3ccccc3)ccc2OC[C@H]1C | inactive: 0.997 |
| C[C@H](CO)N1C[C@H](C)[C@H](CN(C)C(=O)Nc2ccc(C(F)(F)F)cc2)Oc2ccc(NS(C)(=O)=O)cc2C1=O | inactive: 0.986 |
| COc1ccccc1NC(=O)N(C)C[C@H]1Oc2cc(Br)ccc2S(=O)(=O)N([C@H](C)CO)C[C@@H]1C | inactive: 1.01 |
| C[C@H](CO)N1C[C@H](C)[C@@H](CN(C)C(=O)c2ccccc2)OCCCC[C@H](C)Oc2ccc(NS(=O)(=O)c3cccs3)cc2C1=O | inactive: 0.995 |
| C[C@@H]1CN([C@H](C)CO)C(=O)CCCn2nncc2CO[C@H]1CN(C)S(=O)(=O)c1cn(C)cn1 | inactive: 0.986 |
| O=c1ccn([C@H]2O[C@H](CO)[C@@H](O)[C@@H]2O)c(=S)[nH]1 | inactive: 0.867 |
| C[C@@H]1CN([C@@H](C)CO)C(=O)c2cc(NC(=O)Nc3ccc(F)cc3)ccc2O[C@@H]1CN(C)S(C)(=O)=O | inactive: 1.05 |
| CCn1nnc2c(=S)nc[nH]c21 | inactive: 0.969 |
| O=C(Nc1ccc(C(F)(F)F)cc1)Nc1ccc2c(c1)[C@H]1C[C@H](CC(=O)N3CCc4ccccc4C3)O[C@H](CO)[C@H]1O2 | inactive: 1.02 |
| C[C@@H]1CCCCO[C@H](CN(C)C(=O)c2ccccc2)[C@@H](C)CN([C@@H](C)CO)C(=O)c2cc(NS(=O)(=O)c3cccs3)ccc2O1 | inactive: 1 |
